Laboratory results published in PubChem BioAssay AID1479 (National Center for Advancing Translational Sciences (NCATS), 2009).
Several values for one entry are separate records, joined by “and”; a condition that tells them apart may be missing. Equal values may be shown once. Screen size: about 280,000 compounds; about 820 (0.29%) were called active. The inconclusive results got no clear call from the source; some entries with a clear call stand among them for comparison. The call rests on the fitted dose curve; in most records, active means well fitted curve in either direction with a large enough effect; inconclusive means small, poorly fitted or top-dose-only effect; inactive means flat fitted curve, though single readings scatter. Where the call is inconclusive, the potency comes from a doubtful curve fit.

test: Total Fluorescence Counterscreen for Inhibitors of the Interaction of Thyroid Hormone Receptor and Steroid Receptor Coregulator 2; settings: TRb/SRC2 Texas Red total fluorescence interference; series mostly up to 106 µM; fluorescence change, negative = quenching: at the top concentration
How it was run: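 Human TRβ ligand-binding domain (0.6 uM) and Texas Red SRC2 peptide (20 nM) in Tris buffer with 1 uM T3 and 5% DMSO were incubated with pinned compound for 5 hr at ambient temperature. Total fluorescence was computed as S + 2P (555/632 nm).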
On the % scale 0 is the no-effect control and ±100 the full control effect; potency means the concentration at half of the fitted maximal effect; tags describe the fitted curve by direction and shape or compound fluorescence and quenching.

Structure (SMILES)	Potency	fluorescence change, negative = quenching
O=c1c2oc3ccccc3c2ncn1Cc1ccc(Br)cc1	inconclusive: 0.0002 µM [falling, full curve, poor fit]	
Oc1c(Cl)cc(Cl)cc1Sc1cc(Cl)cc(Cl)c1O	inconclusive: 126 µM [quencher, partial curve] and inconclusive: 50.1 µM [quencher, partial curve]	
Cc1sc2ncn(CC(=O)N(C)c3cccc(C(F)(F)F)c3)c(=O)c2c1S(=O)(=O)N1CCN(c2ncccn2)CC1	active: 0.0794 µM [quencher]	
Cc1cccc(CCNC(=O)c2c[nH]c3ccc(S(=O)(=O)Nc4ccccc4F)cc3c2=O)c1	inconclusive: 10 µM [quencher, full curve]	
COC(=O)CCCC1=CC2=CC(=O)C(C)(OC(=O)c3cccs3)C(=O)C2=CN1Cc1ccc2c(c1)OCO2 (stereo not drawn)	inactive	
CCC(c1nnnn1Cc1ccco1)N(Cc1cc2cc(OC)ccc2[nH]c1=O)C1CCCCC1 (stereo not drawn)	inconclusive: 50.1 µM [quencher, partial curve]	
COC(=O)c1cccc(CN2C(=O)SC(Nc3ccc(Cl)cc3)C2=O)c1 (stereo not drawn)	inconclusive: 0.316 µM [falling, full curve, poor fit]	
CC(=O)/C(=N/Nc1ccccc1)Sc1nnc(CCc2ccccc2)n1-c1ccccc1	active: 0.355 µM [quencher]	
CCC(=O)Nc1cc(-c2nc3ccccc3s2)c(Cl)cc1Cl	active: 35.5 µM [quencher]	
Cc1ccc(Nc2nc(C)c(NC(=O)c3ccc(C)cc3)c(Nc3ccc(C)cc3)n2)cc1		inactive: -2.03%
Oc1ccc2ccccc2c1N=Nc1ccccc1	active: 112 µM [fluorescent]	
Cc1cccc(C(=O)Nc2nnc(S(=O)(=O)N3CCCc4ccccc43)s2)c1	inconclusive: 0.0004 µM [falling, full curve, poor fit]	
O=C1CSC(=S)N1Cc1cccnc1	inconclusive: 44.7 µM [fluorescent, partial curve]	
COc1cc2ccccc2cc1C(=O)Nc1ccc2oc(-c3cccc(C)c3)nc2c1	active: 3.16 µM [quencher]	
CCOC(=O)c1c(CC(C)C)csc1NC(=O)COC(=O)c1cc(OC)c(OC)cc1[N+](=O)[O-]	inconclusive: 3.98 µM [falling, full curve, poor fit]	
Fc1ccc(CNC(=S)Nc2cccc(C(F)(F)F)c2)cc1		inactive: -4.49%
CCCCCCCC/C=C\CCCCCCCC(=O)OC		inactive: -0.278% [at 201 µM]
CC1CCN(C(=O)C(C)Sc2nc(-c3ccccc3)cc(C(F)(F)F)n2)CC1 (stereo not drawn)	inconclusive: 0.0355 µM [falling, full curve, poor fit]	
COc1cccc(CNC(=O)c2cc3ccc4cccnc4c3[nH]2)c1	inconclusive: 11.2 µM [quencher, full curve]	
Cc1cccc(NC(=O)c2ccccc2NC(=O)C2CCCCC2)c1C	inconclusive: 44.7 µM [fluorescent, partial curve]	
COc1cc(C)ccc1OCCSc1nc2ccc(NC(C)=O)cc2s1		inactive: -21.5%
CCOC(=O)N1CCN(c2ccc([N+](=O)[O-])cc2)CC1		inactive: -3.61%

Structure (SMILES)	Potency	fluorescence change, negative = quenching
CCCN1C(=O)/C(=C2/C=Cc3ccccc3N2CC)SC1=S	inconclusive: 31.6 µM [rising, single point]	
O=C(Cc1ccc(Cl)cc1)Nc1ccc2oc(-c3ccccc3F)nc2c1	inconclusive: 0.708 µM [falling, full curve, poor fit]	
CC[C@H]1C2=C3C(CC[C@H]4C(OCc5ccc(F)cc5C(F)(F)F)OC[C@](C)([C@@H]34)N(C(=O)OC(C)(C)C)C2)C2COC(=O)OCC21 (stereo partly drawn)		inactive: -4.31%
COC(=O)c1cc2sc(C)cc2n1Cc1nc(-c2ccc(C)cc2)oc1C	active: 89.1 µM [quencher]	
Oc1[nH]c2ccccc2c1N=Nc1ccc(F)cc1		inactive: 1.31%
Cc1cccc(N2CCN(C(=O)c3cc4ccc5cccnc5c4[nH]3)CC2C)c1 (stereo not drawn)	inconclusive: 28.2 µM [falling, full curve, poor fit]	
COc1ccc(-c2nc3cc(NC(=O)c4ccc(C)cc4)ccc3o2)cc1Cl	inconclusive: 0.447 µM [falling, full curve, poor fit]	
Cc1ccc(O)c(-c2n[nH]c3c2C(c2ccc(F)cc2)N(Cc2ccco2)C3=O)c1 (stereo not drawn)	inconclusive: 0.282 µM [falling, full curve, poor fit]	
CC(C)OCCCNC(=O)CCCN1C(=O)CCn2nc(-c3cccn3C)cc21	inconclusive: 4.47 µM [falling, full curve, poor fit]	
Cc1ccc(S(=O)(=O)c2cc3cc(C(=O)Nc4ccc(C)cc4C)ccc3oc2=O)cc1	inconclusive: 0.178 µM [quencher, full curve]	
Cc1cccc(CNC(=O)CN2C(=O)CCn3nc(-c4cn(C)c5ccccc45)cc32)c1	inconclusive: 0.891 µM [falling, full curve, poor fit]	
COc1ccc2c(c1)CCc1c(C(=O)Nc3ccc(OC)cc3OC)noc1-2	inconclusive: 2.51 µM [falling, full curve, poor fit]	
O=C(NCc1ccco1)c1ccccc1NS(=O)(=O)c1cccs1		inactive: 0.726%
Cc1ccccc1CN1CCC(CNc2ncnc3onc(-c4ccc(F)cc4)c23)CC1	active: 0.0708 µM [quencher]	
CCOC(=O)c1c(C)c(-c2ccccc2)n(CC(=O)Nc2cc(C)ccc2OC)c1C	inconclusive: 11.2 µM [quencher, full curve]	
CC(=O)Nc1ccc2nc(-c3cc(C)ccc3C)[nH]c2c1	inconclusive: 70.8 µM [falling, partial curve, poor fit]	
Clc1ccc(-c2nc3sccn3c2/C=N/OCc2ccc(Cl)c(Cl)c2)cc1	inconclusive: 112 µM [falling, partial curve, poor fit]	
CCC(=Nc1ccc(N)cc1)C1=C(O)C(C(=O)OC)C(C)(C)CC1=O (stereo not drawn)	active: 44.7 µM [fluorescent]	
CCCn1c(CCC(=O)Nc2ccc(OCC)cc2)nc2cccnc21		inactive: 0.617%
O=c1cc(O)cc(/C=C/c2ccc(O)c(O)c2)o1		inactive: -11%
CCOC(=O)CC(=O)CSc1nc2ccsc2c(=O)n1Cc1ccccc1	inconclusive: 2 µM [quencher, full curve]	
